# In US20210228731A1, “ANTIBODY DRUG CONJUGATES FOR ABLATING HEMATOPOIETIC STEM CELLS” (NOVARTIS AG, priority 2018, published 2021):
# B1: anti-cKIT Fab3 (HC-E152C): anti-cKIT Fab fragment with heavy chain E152C (Cys Fab HC SEQ ID NO: 130) (antibody)
# heavy: QVQLVQSGAEVKKPGSSVKVSCKASGGTFSSYAISWVRQAPGQGLEWMGTIGPFEGQPRYAQKFQGRVTITADESTSTAYMELSSLRSEDTAVYYCARGGYISDFDVWGQGTLVTVSSASTKGPSVFPLAPSSKSTSGGTAALGCLVKDYFPCPVTVSWNSGALTSGVHTFPAVLQSSGLYSLSSVVTVPSSSLGTQTYICNVNHKPSNTKVDKKVEPKSCD
# modifications: light chain not cited
# B2: Anti-cKIT Ab1: full length anti-cKIT antibody, heavy chain SEQ ID NO: 12, light chain SEQ ID NO: 25 (antibody)
# heavy: QVQLVQSGAEVKKPGSSVKVSCKASGGTFSSYAISWVRQAPGQGLEWMGVIFPAEGAPGYAQKFQGRVTITADESTSTAYMELSSLRSEDTAVYYCARGGYISDFDVWGQGTLVTVSSASTKGPSVFPLAPSSKSTSGGTAALGCLVKDYFPEPVTVSWNSGALTSGVHTFPAVLQSSGLYSLSSVVTVPSSSLGTQTYICNVNHKPSNTKVDKRV[human IgG1 Fc left out]
# light: DIQMTQSPSSLSASVGDRVTITCRASQSISNYLAWYQQKPGKAPKLLIYDASSLQSGVPSRFSGSGSGTDFTLTISSLQPEDFATYYCQQYYYESITFGQGTKVEIKRTVAAPSVFIFPPSDEQLKSGTASVVCLLNNFYPREAKVQWKVDNALQSGNSQESVTEQDSKDSTYSLSSTLTLSKADYEKHKVYACEVTHQGLSSPVTKSFNRGEC
# B3: J29 (conjugate)
# heavy: QVQLVQSGAEVKKPGSSVKVSCKASGGTFSSYAISWVRQAPGQGLEWMGTIGPFEGQPRYAQKFQGRVTITADESTSTAYMELSSLRSEDTAVYYCARGGYISDFDVWGQGTLVTVSSASTKGPSVFPLAPSSKSTSGGTAALGCLVKDYFPEPVTVSWNSGALTSGVHTFPAVLQSSGLYSLSSVVTVPSSSLGTQTYICNVNHKPSNTKVDKRVEPKSCDKTHTCPPCPAP
# light: B2 light
# modifications: LP2 linker-payload, DAR 4
# B4: J10 (conjugate)
# heavy: QVQLVQSGAEVKKPGSSVKVSCKASGGTFSSHALSWVRQAPGQGLEWMGGIIPSFGTADYAQKFQGRVTITADESTSTAYMELSSLRSEDTAVYYCARGLYDFDYWGQGTLVTVSSASTKGPSVFPLAPSSKSTSGGTAALGCLVKDYFPEPVTVSWNSGALTSGVHTFPAVLQSSGLYSLSSVVTVPSSSLGTQTYICNVNHKPSNTKVDKRVEPKSCDKTHTCPPCPAPELLG
# light: B2 light with S28D, N31Q, Y32D, T85V, E94L, S95P, I96S
# B5: J30 (conjugate)
# heavy: B3 heavy with T50V, G52F, F54A, Q57A, R59G
# light: B2 light
# modifications: LP2 linker-payload, DAR 4
# B6: J15 (conjugate)
# heavy: B3 heavy with T50V, G52F, F54A, Q57A, R59G
# light: B2 light
# B7: J11 (conjugate)
# heavy: B4 heavy
# light: B2 light with S28D, N31Q, Y32D, T85V, E94L, S95P, I96S
# B8: J26 (conjugate)
# heavy: QVQLVQSGAEVKKPGSSVKVSCKASGGTFSSHALSWVRQAPGQGLEWMGGIIPSFGTADYAQKFQGRVTITADESTSTAYMELSSLRSEDTAVYYCARGLYDFDYWGQGTLVTVSSASTKGPSVFPLAPSSKSTSGGTAALGCLVKDYFPEPVTVSWNSGALTSGVHTFPAVLQSSGLYSLSSVVTVPSSSLGTQTYICNVNHKPSNTKVDKRVEPKSCDKTHTCPPCPAP
# light: B2 light with S28D, N31Q, Y32D, T85V, E94L, S95P, I96S
# modifications: LP2 linker-payload, DAR 4
# B9: J16 (conjugate)
# heavy: B3 heavy with T50V, G52F, F54A, Q57A, R59G
# light: B2 light
# B10: anti-cKIT F(ab′2)2: F(ab′)2 fragment of anti-cKIT Ab2 (antibody)
# heavy: EVKLEQSGPGLVKPSQSLSLTCSVTGYSITSGYYWNWIRQFPGNKLEWMSYISYDGDNNYNPSLKNRISITRDTSKNQFFLKLSSVTTEDTATYYCAGGYYRYGLSYYYVMDYWGQGTSVTVSAASTKGPSVFPLAPSSKSTSGGTAALGCLVKDYFPEPVTVSWNSGALTSGVHTFPAVLQSSGLYSLSSVVTVPSSSLGTQTYICNVNHKPSNTKVDKRVEPKSC
# light: DIKMTQSPASLAVSLGQRATISCKASQSVDYDGNSYMNWYQQKPGQPPKLLIYAASNLESGIPARFSGSGSGTDFTLNIHPVEEEDAATYYCQQSNEDPPTFGGGTKLELKRTVAAPSVFIFPPSDEQLKSGTASVVCLLNNFYPREAKVQWKVDNALQSGNSQESVTEQDSKDSTYSLSSTLTLSKADYEKHKVYACEVTHQGLSSPVTKSFNRGEC
# Columns and labels:
# [1] = test system: human peripheral blood HSC-derived mast cells; test: In vitro human mast cell degranulation assay (beta-hexosaminidase release); type: cell-based; conditions: test agents 0.006-25 nM cross-linked with antibody specific for the Fab portion; absence of SCF
# Procedure: Mature mast cells were generated using CD34+ progenitors from mobilized peripheral blood. CD34+ cells were cultured in StemSpan SFEM (StemCell Technologies) supplemented with recombinant human stem cell factor (rhSCF, 50 ng/ml, Gibco), recombinant human interleukin 6 (rhIL-6, 50 ng/ml, Gibco), recombinant human IL-3 (30 ng/ml, Peprotech), GlutaMAX ([…], Gibco), penicillin (100 U/ml, Hyclone) and streptomycin (100 μg/ml, Hyclone). Recombinant hll-3 was added only during the first week of the culture. After the third week, half of the medium was replaced weekly with fresh medium containing rhIL-6 (50 ng/ml) and rhSCF (50 ng/ml). Mature mast cell purity was evaluated by surface staining of high-affinity IgE receptor (FCεRI, eBioscience) and CD117 (BD). Cells were used between week 8 and 12 of the culture.
# The derived mast cells were washed once to remove SCF, and the required amount of cells was incubated overnight in mast cell medium containing rhIL-6 (50 ng/ml) with or without rhSCF (50 ng/ml). As positive control for mast cell degranulation, a portion of the cells were sensitized with human myeloma IgE (100 ng/ml, EMD Millipore). The following day, anti-cKIT antibody or antibody fragments or toxin conjugates thereof, mouse monoclonal anti-human IgG1 (Fab specific, Sigma), goat anti-human IgE (Abcam) and compound 48/80 (Sigma) dilutions were prepared in HEPES degranulation buffer (10 mM HEPES, 137 mM NaCl, 2.7 mM KCl, 0.4 mM sodium phosphate dibasic, 5.6 mM glucose, pH adjusted at 7.4 and mixed with 1.8 mM calcium chloride and 1.3 mM magnesium sulfate) supplemented with 0.04% bovine serum albumin (BSA, Sigma). Test agents and anti-IgG1 were mixed together in a V-bottom 384-well assay plate while anti-IgE and compound 48/80 were tested alone. The assay plate was incubated 30 min at 37° C. During the incubation, cells were washed 3 times with HEPES degranulation buffer+0.04% BSA to remove medium and unbound IgE. Cells were resuspended in HEPES degranulation buffer+0.04% BSA and seeded at 3000 cells per well in the assay plate for a final reaction volume of 50 μl. Cells that were sensitized with IgE were used only with anti-IgE as a positive control for degranulation. The assay plate was incubated 30 min at 37° C. for degranulation to occur. During this incubation, p-nitro-N-acetyl-pi-D-gluosamine (pNAG, Sigma) buffer was prepared by sonicating 3.5 mg/ml of pNAG in citrate buffer (40 mM citric acid, 20 mM sodium phosphate dibasic, pH 4.5). β-hexosaminidase release was measured by mixing 20 μl of cell supernatant with 40 μl of pNAG solution in a flat-bottom 384-well plate. This plate was incubated for 1.5 hour at 3700, and the reaction was stopped by the addition of 40 μl of stop solution (400 mM glycine, pH 10.7). Absorbance was read using a plate reader at λ=405 nm with reference filter at λ=620 nm.
# Mature mast cells were generated and tested with anti-cKIT antibody and F(ab′)2 and Fab fragments as described in Example 6.
# rat cKIT = test: Cross reactivity of cKIT antibodies to rat cKIT; type: binding
# mouse cKIT = target: T1, mouse cKIT (Mus musculus, UniProt P05532); test: Cross reactivity of cKIT antibodies to mouse cKIT; type: binding
# T1 construct: 3.125-50 nM of cKIT receptor extracellular domains (ECD) were diluted in a 2-fold series; purchased Sino Biological Inc 50530-M08H
# T1 sequence (P05532 25-527 limits assumed): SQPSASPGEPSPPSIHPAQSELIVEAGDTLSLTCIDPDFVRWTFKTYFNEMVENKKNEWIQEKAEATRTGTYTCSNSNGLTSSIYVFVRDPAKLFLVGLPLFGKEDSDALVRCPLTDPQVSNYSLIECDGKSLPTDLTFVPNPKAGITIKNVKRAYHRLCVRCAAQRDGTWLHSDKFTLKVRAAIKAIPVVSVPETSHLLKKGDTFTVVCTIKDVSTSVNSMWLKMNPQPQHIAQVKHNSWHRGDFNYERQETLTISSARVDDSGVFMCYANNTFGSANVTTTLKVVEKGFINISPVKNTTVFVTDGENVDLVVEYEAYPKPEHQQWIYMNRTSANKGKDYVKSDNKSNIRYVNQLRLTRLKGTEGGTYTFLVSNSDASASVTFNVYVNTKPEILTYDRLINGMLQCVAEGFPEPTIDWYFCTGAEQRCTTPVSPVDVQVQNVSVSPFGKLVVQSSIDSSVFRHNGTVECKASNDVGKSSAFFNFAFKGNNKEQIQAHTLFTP
# [2] = test system: human HSCs in humanized NSG mice; test: In vivo ablation of human HSCs from mouse host; conditions: 10 mg/kg twice per day for 2 days intraperitoneally, bone marrow analyzed day 21
# [3] = test system: Human mobilized peripheral blood hematopoietic stem cells (HSCs); test: In vitro human HSC cell killing / viability assay; type: cell-based; conditions: 7 days culture, FACS
molecule,measurement,setting,value
B1,mast cell degranulation (beta-hexosaminidase release) when cross-linked,[1],no mast cell degranulation was triggered
B2,mast cell degranulation (beta-hexosaminidase release) when cross-linked,[1],caused mast cell degranulation when cross-linked
same,Reactivity to rat cKIT,rat cKIT,Not
same,Reactivity to mouse cKIT,mouse cKIT,Not
B3,"human HSCs (human CD45+, human CD34+, human CD38-) in bone marrow",[2],showed reduced human HSCs; also recorded: able to ablate human HSCs in vivo
B4,"EC50 (ng/ml), cell viability, Human CD34 + cells",[3],57 ng/mL
same,"EC50 (ng/ml), cell viability, Human CD90 + cells",[3],59 ng/mL
same,"EC50 (ng/ml), cell viability, Human total nucleated cells",[3],35 ng/mL
B5,"human HSCs (human CD45+, human CD34+, human CD38-) in bone marrow",[2],showed reduced human HSCs; also recorded: able to ablate human HSCs in vivo
B6,"EC50 (ng/ml), cell viability, Human CD34 + cells",[3],151 ng/mL
same,"EC50 (ng/ml), cell viability, Human CD90 + cells",[3],229 ng/mL
same,"EC50 (ng/ml), cell viability, Human total nucleated cells",[3],115 ng/mL
B7,"EC50 (ng/ml), cell viability, Human CD34 + cells",[3],27 ng/mL
same,"EC50 (ng/ml), cell viability, Human CD90 + cells",[3],41 ng/mL
same,"EC50 (ng/ml), cell viability, Human total nucleated cells",[3],16 ng/mL
B8,"human HSCs (human CD45+, human CD34+, human CD38-) in bone marrow",[2],showed reduced human HSCs; also recorded: able to ablate human HSCs in vivo
B9,"EC50 (ng/ml), cell viability, Human CD34 + cells",[3],43 ng/mL
same,"EC50 (ng/ml), cell viability, Human CD90 + cells",[3],89 ng/mL
same,"EC50 (ng/ml), cell viability, Human total nucleated cells",[3],29 ng/mL
B10,mast cell degranulation (beta-hexosaminidase release) when cross-linked,[1],caused mast cell degranulation when cross-linked

# Residue numbers refer to the chain shown, from its start. Numbers in names are those of the source. Entries after “also recorded” stand apart in the source; their conditions may differ.
